Read counts are not given, so values of variants with three or more changes are uncertain.
B1: CPEB3 Ribozyme (parent)
chain: UAACAGGGGGCCACAGCAGAAGCGUUCACGUCGCAGCCCCUGUCAGAUUCUGGUGAAUCUGCGAAUUCUGCUGUAUAUCUC

Variants of: B1
Assay: self-cleavage, relative activity (ratio to wild type); higher = more cleavage; in vitro, sequencing
How it was run: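 Relative activity compares each variant's cleaved/total read fraction with that of the unmutated ribozyme. To get these fractions, barcoded CPEB3 ribozyme libraries from rounds of error-prone PCR were transcribed with T7 RNA polymerase for 5 hours at 37°C and then given 15 min of DNase I treatment before EDTA was added. The RNAs were reverse transcribed with template switching and sequenced on Illumina, and DNA sequencing linked barcodes to variants. A minimum of 5 reads applied, and three batches were averaged.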
With A35U U43C U67C U72C the self-cleavage was 0.07.
For A35U U43C U74C U78G, the self-cleavage was 0.62.
A35U U43G C44U showed a self-cleavage of 0.17.
With A35U U48A G63A U72C the self-cleavage was 0.2.
In the case of A35U U48A U66C, the self-cleavage is reported as 0.12.
A35U U48C A64C gave a self-cleavage of 0.16.
Work on A35U U48C C79U yielded a self-cleavage of 0.38.
A35U U48C G52A U69A gave a self-cleavage of 0.08.
For A35U U48C U51A U76C, the self-cleavage was 0.25.
Variant A35U U48C U72C has a self-cleavage of 0.21.
A35U U48G U51C gave a self-cleavage of 0.16.
Variant A35U U49A A56U U69A has a self-cleavage of 0.2.
Variant A35U U49A A64G has a self-cleavage of 0.14.
Variant A35U U49A A64U U72A U74C A77G has a self-cleavage of 0.1.
With A35U U49A A65G the self-cleavage was 0.11.
Work on A35U U49A C62U yielded a self-cleavage of 0.17.
A35U U49A C68A U80G gave a self-cleavage of 0.1.
A35U U49A G52A U74C showed a self-cleavage of 0.66.
A35U U49C A64U A65G showed a self-cleavage of 0.14.
For A35U U49C G53A U80A, the self-cleavage was 0.13.
For A35U U49C U51C U54C, the self-cleavage was 0.43.
For A35U U49C U51C U80A, the self-cleavage was 0.13.
For A35U U49C U67A, the self-cleavage was 0.34.
Variant A35U U49C U67C has a self-cleavage of 0.07.
In the case of A35U U49C U69A, the self-cleavage is reported as 0.1.
For A35U U49C U72C U78A, the self-cleavage was 0.14.
With A35U U49C U80A the self-cleavage was 0.11.
Variant A35U U49G U51A has a self-cleavage of 0.24.
A35U U51A A56G U58C C62U gave a self-cleavage of 0.13.
Variant A35U U51A A64G U67C has a self-cleavage of 0.11.
Work on A35U U51A U54C U60C U80C yielded a self-cleavage of 0.3.
With A35U U51A U60C U74C the self-cleavage was 0.23.
In the case of A35U U51C A56C A65U, the self-cleavage is reported as 0.06.
A35U U51C A56G G70A U80C showed a self-cleavage of 0.1.
For A35U U51C A56U, the self-cleavage was 0.28.
A35U U51C A56U A64U U78C gave a self-cleavage of 0.06.
Work on A35U U51C U54C U80C yielded a self-cleavage of 0.81.
A35U U51C U67A A75G gave a self-cleavage of 0.09.
A35U U51C U69A gave a self-cleavage of 0.13.
A35U U51C U72A showed a self-cleavage of 0.33.
For A35U U51C U78C, the self-cleavage was 0.29.
A35U U51G A77C showed a self-cleavage of 0.45.
For A35U U51G C68G A77G, the self-cleavage was 0.11.
Variant A35U U54A U69G has a self-cleavage of 0.32.
For A35U U54A U76A, the self-cleavage was 0.79.
With A35U U54A U78C the self-cleavage was 0.63.
A35U U54C A56G showed a self-cleavage of 0.26.
For A35U U54C U58C, the self-cleavage was 0.28.
In the case of A35U U54C U80A, the self-cleavage is reported as 0.7.
A35U U54C U80C gave a self-cleavage of 0.66.
In the case of A35U U54G U69A, the self-cleavage is reported as 0.28.
Work on A35U U54G U69C yielded a self-cleavage of 0.09.
With A35U U58A U72A the self-cleavage was 0.13.
For A35U U58C A64G G73A, the self-cleavage was 0.17.
Work on A35U U58C U69A U72C yielded a self-cleavage of 0.35.
In the case of A35U U58C U72A, the self-cleavage is reported as 0.25.
With A35U U58G G61A U72A the self-cleavage was 0.09.
With A35U U60A A64G the self-cleavage was 0.03.
A35U U60A A64G U66C showed a self-cleavage of 0.14.
Work on A35U U60A A64U yielded a self-cleavage of 0.09.
Variant A35U U60A A75G has a self-cleavage of 0.15.
In the case of A35U U60C C62U U69G, the self-cleavage is reported as 0.15.
With A35U U60C C71U the self-cleavage was 0.14.
Work on A35U U60C U67C U74A U80C yielded a self-cleavage of 0.11.
A35U U60C U78C gave a self-cleavage of 0.19.
A35U U60G U78A gave a self-cleavage of 0.13.
A35U U66A U74C gave a self-cleavage of 0.15.
For A35U U66C A75G, the self-cleavage was 0.11.
Variant A35U U66C U69C has a self-cleavage of 0.12.
With A35U U67A U72A the self-cleavage was 0.1.
Variant A35U U67C G73A has a self-cleavage of 0.2.
For A35U U67G U72G, the self-cleavage was 0.11.
With A35U U69C C79U the self-cleavage was 0.23.
A35U U69C G73C U74C gave a self-cleavage of 0.13.
A35U U74C U80C gave a self-cleavage of 0.89.
A35U U76A U78C showed a self-cleavage of 0.93.
Variant G36A A45G U54A U80C has a self-cleavage of 0.09.
In the case of G36A A56G U60C, the self-cleavage is reported as 0.15.
For G36A A56G U60C U67C, the self-cleavage was 0.11.
Variant G36A A57G U72C has a self-cleavage of 0.14.
Work on G36A A65U U66C yielded a self-cleavage of 0.13.
Variant G36A C39U C50U U76C has a self-cleavage of 0.27.
G36A G42A U43C C62G gave a self-cleavage of 0.11.
For G36A G42U U72A, the self-cleavage was 0.14.
G36A G55U A57G U60A U66A U69C showed a self-cleavage of 0.08.
With G36A U41A U48C U72A the self-cleavage was 0.14.
Work on G36A U41A U66G yielded a self-cleavage of 0.12.
G36A U41A U80C showed a self-cleavage of 0.08.
Work on G36A U41C C44G G70A yielded a self-cleavage of 0.29.
In the case of G36A U41C U48C U49C A75U U78A, the self-cleavage is reported as 0.08.
Work on G36A U43A U48C U72C yielded a self-cleavage of 0.24.
G36A U43A U58C G63A U72C gave a self-cleavage of 0.
For G36A U43C A56G U78C, the self-cleavage was 0.12.
G36A U43C U69A showed a self-cleavage of 0.07.
For G36A U49A A64G, the self-cleavage was 0.14.
Variant G36A U49A G52A has a self-cleavage of 0.25.
Work on G36A U49A U72C yielded a self-cleavage of 0.18.
For G36A U49C C50A U72C A77G, the self-cleavage was 0.17.
For G36A U51A G55U A57G, the self-cleavage was 0.14.
G36A U51C A56G showed a self-cleavage of 0.17.
G36A U54C U69G C81A showed a self-cleavage of 0.05.
For G36A U54C U74C, the self-cleavage was 0.42.
In the case of G36A U54C U80C, the self-cleavage is reported as 0.22.
With G36A U58A A77G the self-cleavage was 0.18.
For G36A U67G A75G U78C, the self-cleavage was 0.15.
For G36C A45G U58C A77U, the self-cleavage was 0.03.
Variant G36C A45U G61C U78C has a self-cleavage of 0.03.
In the case of G36C A57G U69G U72C, the self-cleavage is reported as 0.15.
G36C A75U U80G gave a self-cleavage of 0.07.
Variant G36C C37U U49C U60C U80C has a self-cleavage of 0.22.
G36C C39A A57U showed a self-cleavage of 0.15.
For G36C U48C G61U U80C, the self-cleavage was 0.19.
Work on G36C U48C U51C yielded a self-cleavage of 0.08.
Variant G36C U49A U54C A56G has a self-cleavage of 0.05.
For G36C U49C U51C A65U, the self-cleavage was 0.1.
For G36C U51C A65G U78C, the self-cleavage was 0.19.
Work on G36U A45G U48C yielded a self-cleavage of 0.17.
G36U A45U U76A showed a self-cleavage of 0.15.
In the case of G36U A56U A57G A75G, the self-cleavage is reported as 0.15.
Variant G36U A64G C68U U78C has a self-cleavage of 0.05.
In the case of G36U C40U U54C U69A, the self-cleavage is reported as 0.11.
In the case of G36U C44G G52A A65G U72C, the self-cleavage is reported as 0.1.
In the case of G36U C44G U60C G61A U72C, the self-cleavage is reported as 0.16.
Variant G36U G46U A47U has a self-cleavage of 0.13.
In the case of G36U U41A A45U A56C U76A, the self-cleavage is reported as 0.07.
For G36U U41A U43G A47G, the self-cleavage was 0.2.
Variant G36U U43A U49A U69A has a self-cleavage of 0.08.
G36U U43C A64U gave a self-cleavage of 0.19.
Work on G36U U43C U67A yielded a self-cleavage of 0.18.
With G36U U48C G55A U78C the self-cleavage was 0.1.
Work on G36U U49C A64C U72A U80A yielded a self-cleavage of 0.09.
G36U U51G A56U A57U gave a self-cleavage of 0.08.
G36U U69A A77G showed a self-cleavage of 0.14.
C37A A45G U49C gave a self-cleavage of 0.06.
C37A A45U U49C A56C U60C gave a self-cleavage of 0.09.
Variant C37A A47G U51A A57G has a self-cleavage of 0.33.
C37A A57G U58C gave a self-cleavage of 0.11.
With C37A A64G U76G the self-cleavage was 0.15.
With C37A A64U U80A the self-cleavage was 0.1.
In the case of C37A A65G U74A, the self-cleavage is reported as 0.36.
Work on C37A C39A A56G G61A U69C yielded a self-cleavage of 0.08.
Work on C37A U41C U51A U54C yielded a self-cleavage of 0.24.
With C37A U43C U67C the self-cleavage was 0.07.
With C37A U43C U78C the self-cleavage was 0.17.
Variant C37A U49C A64U has a self-cleavage of 0.06.
With C37A U49C U78C the self-cleavage was 0.21.
C37A U54C U80A showed a self-cleavage of 0.22.
Work on C37A U60A U72C yielded a self-cleavage of 0.08.
C37G A57G U60A showed a self-cleavage of 0.15.
For C37G C38G A45U A65G C71G A75C, the self-cleavage was 0.03.
C37G U41A U43A U51A showed a self-cleavage of 0.46.
In the case of C37G U41A U54C, the self-cleavage is reported as 0.3.
For C37G U48C U54C, the self-cleavage was 0.23.
In the case of C37G U54A A65G U69A U72C C81G, the self-cleavage is reported as 0.18.
C37G U54C C68A gave a self-cleavage of 0.1.
Variant C37G U67C U80C has a self-cleavage of 0.11.
Variant C37U A45C G70C A77G U80C has a self-cleavage of 0.09.
C37U A45G G70A showed a self-cleavage of 0.26.
Variant C37U A45G U60C U67A has a self-cleavage of 0.21.
Work on C37U A47G U72A yielded a self-cleavage of 0.5.
Variant C37U A56G U69C has a self-cleavage of 0.19.
For C37U A57G A64U, the self-cleavage was 0.16.
C37U A64G U78C gave a self-cleavage of 0.52.
With C37U C40A G42U the self-cleavage was 0.23.
Variant C37U C50A U80A has a self-cleavage of 0.27.
In the case of C37U C59A U67A, the self-cleavage is reported as 0.09.
C37U C62U C71A showed a self-cleavage of 0.14.

— the RNAGym collection of RNA variant scans (doi:10.1093/nar/gkz1192)
